In PubChem BioAssay AID1745845 (National Center for Advancing Translational Sciences (NCATS), 2022):
Hit rate of the full screen: of about 360,000 compounds, about 2,600 (0.72%) were called active. The shares of active, inactive and inconclusive entries below differ from those in the screen. Calls come from the whole dose curve; as a rule, active = well fitted inhibition curve with a large enough effect; inconclusive = small, poorly fitted or top-dose-only effect; inactive = no such curve, though single readings can be large or run the other way. A potency beside an inconclusive call is a rough fit, not a confirmed value.

Experiment: Primary qHTS for Inhibitors of ATXN expression; note: nearly all actives have a fitted effect of over 55% in size
Conditions: HEK-293 ATXN2-luciferase reporter, luminescence, 24 h; activity change, negative = inhibition: at 57 µM (top of the series)
Method in brief: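 qHTS (up to 57 uM final) was run with 24 h compound exposure of reporter cells at 37 °C. Each well was multiplexed: SteadyGlo luminescence measured ATXN2-luciferase expression after a fluorogenic Gly-Phe-AFC viability readout (25 uM final).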
% is set by controls: 0 for no effect and ±100 for the full control effect; potency is the fitted concentration of half-maximal effect; tags give direction and shape of the fitted curve.

| Structure (SMILES) | Potency | activity change, negative = inhibition |
| --- | --- | --- |
| CCC1(OC(=O)CN(C)C)C(=O)OCc2c1cc1n(c2=O)Cc2cc3c(N)cccc3nc2-1 (stereo not drawn) | inconclusive: 0.0095 µM [inhibitor, full curve, poor fit] |  |
| Cc1ccc(-c2nnn(CC(=O)N(Cc3ccco3)C(C(=O)NC(C)(C)C)c3ccc(C)o3)n2)o1 (stereo not drawn) | inactive |  |
| O=C1C(c2ccc(F)cc2)N(CCc2ccccc2)C(=O)CN1C1CCCCC1 (stereo not drawn) | inactive |  |
| CC(C)c1ccc(NC(=O)CNS(=O)(=O)c2ccc(F)cc2)cc1 | inconclusive: 9.47 µM [inhibitor, partial curve] |  |
| Cn1nnnc1Sc1ncnc2scc(-c3ccc(C#N)cc3)c12 | active: 10 µM |  |
| CCCNC(=O)C1(S(=O)(=O)c2ccccc2)CC=CC1 | inactive |  |
| CCc1ccccc1N1CC(c2nc3ccccc3n2Cc2cccc(C)c2)CC1=O (stereo not drawn) | inconclusive: 20 µM [inhibitor, partial curve] |  |
| COCCCNCCCOc1ccc(Cl)cc1C(C)(C)C | inconclusive: 26.7 µM [inhibitor, single point] |  |
| CC(C)NC[C@@H](O)COc1cccc2ccccc12 | inconclusive: 17.8 µM [inhibitor, partial curve, poor fit] |  |
| N#CC(C#N)=c1ccc2c(c1)NC1(CCCCC1)N=2 | inconclusive: 39.8 µM [inhibitor, single point] |  |
| CC(C)C[C@@H](CN1CCC[C@H]1CN1C(=O)C(=O)NC[C@@H]1Cc1ccccc1)N1C[C@H](Cc2ccccc2)N(CC2CCCCC2)C(=O)C1=O | inconclusive: 39.8 µM [inhibitor, single point] |  |
| COc1ccc(Cl)cc1NC(=S)NCCc1ccc(F)cc1 | inactive |  |
| Cc1cnc(C)c(Nc2nc(C(N)Cc3ccc(C(F)(F)F)cc3)cs2)n1 (stereo not drawn) | inconclusive: 31.6 µM [inhibitor, single point] |  |
| CCN(CCO)c1ccc(N=Nc2cc(C)[nH]n2)cc1 | inconclusive: 18.9 µM [inhibitor, single point] |  |
| C/C(=N\NC(=O)c1cc(C2CC2)nc2ccccc12)c1ccc(O)cc1O | active: 2.51 µM |  |
| O=[N+]([O-])c1ccc2[nH]cc(S(=O)(=O)N3CCN(c4cccc(Cl)c4)CC3)c2c1 | inconclusive: 35.5 µM [inhibitor, single point] |  |
| COc1ccc(-c2cccc([C@H]3[C@@H]4C=CCC[C@@]4(C)C(=O)N3Cc3ccccc3)c2)cc1 | inconclusive: 28.2 µM [inhibitor, single point] |  |
| CC(NS(=O)(=O)OCC(Cl)(Cl)Cl)c1ccc(C(C)(C)C)cc1 (stereo not drawn) | inconclusive: 39.8 µM [inhibitor, single point] |  |
| COc1cccc(CNC(=O)c2c(O)nc3ccccn3c2=O)c1 | inactive |  |
| Cn1cnc([N+](=O)[O-])c1S(=O)(=O)c1cccc(Cl)c1 | inconclusive: 31.6 µM [inhibitor, single point] |  |
| Oc1ccc(N2CCN(c3ccnc4cc(Cl)ccc34)CC2)cc1 |  | inconclusive: -60.1% [inhibitor] |
| CC(C)OCCCN1C(=O)c2[nH]nc(-c3ccccc3O)c2C1c1cccc(Cl)c1 (stereo not drawn) | inconclusive: 39.8 µM [inhibitor, partial curve, poor fit] |  |

| Structure (SMILES) | Potency | activity change, negative = inhibition |
| --- | --- | --- |
| O=C(CCN1CCc2ccccc2CC1)c1ccc2c(c1)OCCO2 | inconclusive: 31.6 µM [inhibitor, single point] |  |
| S=C(NCCN(C1CCCCC1)C1CCCC1)Nc1cccc(Cl)c1 | inconclusive: 23.8 µM [inhibitor, partial curve, poor fit] |  |
| COC(=O)Nc1sccc1C(=O)Nc1sccc1C(=O)OC | inconclusive: 39.8 µM [inhibitor, single point] |  |
| O=C(NCc1ccccc1)c1cccc(NC(=O)c2ccccc2)c1 | inconclusive: 1.41 µM [inhibitor, full curve] |  |
| O=C(O)Cc1ccc(NC(=S)NCc2ccco2)cc1 | inactive |  |
| CSCC[C@@H](C(=O)NCCCCCCCCCCC(=O)N1CCN(C(=O)OC(C)(C)C)CC1)n1cc(CCO)nn1 | inconclusive: 31.6 µM [inhibitor, single point] |  |
| COc1ccc(NC2CCCN(C(=O)C3(C)CCCCC3)C2)cc1OC (stereo not drawn) | inactive |  |
| COc1cc(OC)cc(C(=O)Nc2ccc3nc(N4CCC(C)CC4)cc(C)c3c2)c1 | inconclusive: 15.8 µM [inhibitor, partial curve, poor fit] |  |
| S=C(NCC1CCCCC1)Nc1ccc(Oc2ccccc2)cc1 | inconclusive: 39.8 µM [inhibitor, single point] |  |
| COc1cccc(NC(CNS(=O)(=O)c2ccc(C)cc2)c2ccccc2)c1 (stereo not drawn) | inconclusive: 39.8 µM [inhibitor, single point] |  |
| Cc1cc(-c2ccccc2)n2ncc(-c3ccccc3)c2n1 | inactive |  |
| Cc1[nH]nc2nc(SCC(=O)NCC3CCCO3)n(-c3ccc(Br)cc3)c(=N)c12 (stereo not drawn) | inactive |  |
| C/C(CCc1ccc2c(c1)OCO2)=N\NC(=S)NC(C)C | active: 7.94 µM |  |
| CCc1c(C)c(C#N)c2nc3ccccc3n2c1NCCN(C)C | inconclusive: 25.1 µM [inhibitor, partial curve, poor fit] |  |
| CC(=O)c1c(C)[nH]c(C(=O)OCC(=O)Nc2cc(Cl)ccc2[N+](=O)[O-])c1C | inconclusive: 39.8 µM [inhibitor, single point] |  |
| CC(=O)Nc1cccc(NC(=O)CSc2ncc(C(=O)Nc3ccccc3)c(=O)n2C)c1 | inconclusive: 39.8 µM [inhibitor, single point] |  |
| O=C(c1nc(-c2ccc(Cl)cc2)n2c1CCCCC2)N1CCN(c2ccc(F)cc2)CC1 | inconclusive: 35.5 µM [inhibitor, single point] |  |
| COc1cc(O)c(C(=O)CC(=O)c2ccncc2)c(OC)c1 | inactive |  |
| COc1ccc(NC(=O)CC2C(=O)NCCN2C(=O)c2ccc(N(C)C)cc2)cc1 (stereo not drawn) | inactive |  |
| CN(C)C(=S)Nc1ccc([N+](=O)[O-])cc1 | inconclusive: 5.62 µM [inhibitor, single point] |  |
| CC(NC(=O)C12CC3CC(CC(C3)C1)C2)C(=O)NN=Cc1ccc([N+](=O)[O-])o1 (stereo not drawn) | inconclusive: 28.2 µM [inhibitor, single point] |  |
